Reference: PubChem BioAssay AID686978 (National Center for Advancing Translational Sciences (NCATS), 2013)
“And” between values parts separate entries of the source, which are not always exact repeats. Equal entries are not always repeated. In all, about 420,000 compounds went through this assay and about 64,000 (15%) were called active. Inconclusive results, whose numbers are uncertain, are shown with a selection of clear calls. Calls come from the whole dose curve; as a rule, active = well fitted inhibition curve with a large enough effect; inconclusive = small, poorly fitted or top-dose-only effect; inactive = flat fitted curve, though single readings scatter. A potency beside an inconclusive call is a rough fit, not a confirmed value.

experiment: qHTS for Inhibitors of human tyrosyl-DNA phosphodiesterase 1 (TDP1): qHTS in cells in absence of CPT; conditions: DT40 Tdp1-/- hTDP1 cells, no CPT, ATP luminescence, 48 h; activity change, negative = growth inhibition: at 46.2 µM (top of the series); note: nearly all actives have a fitted effect of over 55% in size
How it was run: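 Readout: luminescence from CellTiter-Glo after 30 min in the dark at RT. Cells: DT40 Tdp1-/- with stable hTDP1, 400/well. Exposure: compounds alone, ≥48 hr, 37 °C.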
% is set by controls: 0 for no effect and ±100 for the full control effect; potency is the fitted concentration of half-maximal effect; tags give direction and shape of the fitted curve.

| SMILES | Potency | activity change, negative = growth inhibition |
| --- | --- | --- |
| Cc1onc(-c2c(F)cccc2Cl)c1C(=O)OCC(=O)NC(N)=O | inconclusive: 16.4 µM [inhibitor, single point] | – |
| CC(C)c1cccc(C(C)C)c1NC(=O)Cn1c(=O)cnc2ccccc21 | inconclusive: 29.1 µM [inhibitor, single point] | – |
| CCOC(=O)C1CCN(C(=O)COC(=O)CSc2ccc([N+](=O)[O-])cc2)CC1 | inactive | – |
| CC1(C(=O)Nc2ccc3[nH]ncc3c2)CCN1C(=O)C/C=C/c1ccccc1 (configuration not stated) | active: 18.4 µM | – |
| Cc1cc(C(=O)N[C@H](c2ccccc2)[C@@]2(C)C[C@@H]2[C@@H](C)C(=O)Nc2ccc3ccccc3c2)no1 | active: 25.9 µM | – |
| CC1CCN(S(=O)(=O)c2ccc(C(=O)Nc3nc4ccc(F)cc4s3)cc2)CC1 | inactive | – |
| Cc1ccc(-c2csc(NC(=O)c3c(C)noc3C)n2)s1 | active: 4.11 µM | – |
| CN(C)CCCN(C(=O)c1ccc(S(=O)(=O)N2CCCC2)cc1)c1nc2c(F)cc(F)cc2s1 | inactive | – |
| Cc1ccc(NC(=O)Nc2nc3ccccc3s2)cc1NC(=O)Nc1nc2ccccc2s1 | active: 13 µM | – |
| O=C(c1ccc(Br)s1)N1CCN(S(=O)(=O)c2ccccc2)CC1 | inconclusive: 13 µM [inhibitor, partial curve] | – |
| Cc1ccc(-c2nc(-c3ccncc3)no2)c(C)c1 | inactive | – |
| Cc1ccc2nc(C)c3c(c2c1)SCC3 | inactive | – |
| CC1(C)CC(CCNS(=O)(=O)c2ccccc2)(c2ccccc2)CCO1 (configuration not stated) | inconclusive: 16.4 µM [inhibitor, partial curve] | – |
| COc1ccccc1N1CCN(Cc2nc(-c3ccc(F)cc3)oc2C)CC1 | active: 18.4 µM | – |
| CC1(C(=O)NCc2ccc3c(c2)OCO3)CCN1C(=O)Cc1cccs1 (configuration not stated) | inactive | – |
| CCOC(=O)c1nnc(-c2ccccc2)nc1Oc1ccc(Cl)cc1 | active: 16.4 µM | – |
| COc1ccccc1-c1cc2nc(C)c(CCC(=O)NCc3ccc(F)cc3)c(C)n2n1 | inconclusive: 10.3 µM [inhibitor, partial curve, poor fit] | – |
| Cc1cn([C@H]2C[C@H](O)[C@@H](CCC(=O)NCCCc3ccccc3)O2)c(=O)[nH]c1=O | inactive | – |
| COc1cc(-c2nc(-c3ccccc3)c(-c3cc([N+](=O)[O-])ccc3C)[nH]2)cc(OC)c1OC | active: 16.4 µM | – |
| O=C(Nc1ccccc1SCC1CSc2nc3ccccc3c(=O)n21)c1cccc(Cl)c1 (configuration not stated) | inconclusive: 29.1 µM [inhibitor, single point] | – |
| Cc1ccc(NC(=O)c2cncc(Br)c2)cc1S(=O)(=O)N(C)C | active: 14.6 µM | – |
| CNS(=O)(=O)c1cnccc1N1CCN(c2cccc(C)c2)CC1 | inactive | – |
| CC(/C=C1\SC(=S)N(CCC(=O)Nc2nc(C)cs2)C1=O)=C\c1ccccc1 | inconclusive: 29.1 µM [inhibitor, single point] | – |
| COc1cccc(CN2CCC(n3nccc3NC(=O)CCCc3ccccc3)CC2)c1 | inconclusive: 20.6 µM [inhibitor, single point] | – |

| SMILES | Potency | activity change, negative = growth inhibition |
| --- | --- | --- |
| COC(=O)Cc1cc(=O)[nH]c(/N=C(\N)Nc2ccc(C)cc2)n1 | inactive | – |
| CC1CCN(C(C(=O)Nc2ccc(C(C)C)cc2)c2ccc3c(c2)OCO3)CC1 (configuration not stated) | inconclusive: 16.4 µM [inhibitor, single point] | – |
| CCCCn1c(N)c(N(CCC(C)C)C(=O)c2c(C)noc2C)c(=O)[nH]c1=O | inactive | – |
| Cc1nc2cc(OCc3cc(C(=O)NC(C)c4cnn(C)c4)no3)ccc2s1 (configuration not stated) | inconclusive: 23.1 µM [inhibitor, single point] | – |
| Cc1cccc(Cc2nc3ccccc3[nH]2)c1 | inconclusive: 29.1 µM [inhibitor, partial curve, poor fit] | – |
| COc1ccc(NC(=S)N2CCC(c3nc4ccc(Cl)cc4[nH]3)CC2)c(OC)c1 | inconclusive: 10.3 µM [inhibitor, partial curve, poor fit] | – |
| Cc1cccc(S(=O)(=O)N(C)C[C@H]2OCc3cnnn3CCCC(=O)N([C@H](C)CO)C[C@H]2C)c1 | inactive | – |
| COc1ccccc1-c1csc(Nc2ccc(Oc3ccccc3)cc2)n1 | inconclusive: 23.1 µM [inhibitor, single point] | – |
| CN(C)c1ccc(/C=C2\CCCCC2=O)cc1 | inconclusive: 12.6 µM [inhibitor, partial curve, poor fit] and inconclusive: 16.4 µM [inhibitor, single point] | – |
| CCc1nc2c(OCCOc3ccc(F)cc3)cccn2c1N(C)C(=O)c1cccs1 | active: 10.3 µM | – |
| COC(=O)c1[nH]c2c(c1C)C(=O)CC(c1cccc(OC)c1)C2 (configuration not stated) | active: 1.3 µM | – |
| O=C(COc1ccc(S(=O)(=O)N2CCCC2)cc1[N+](=O)[O-])N1CCCCC1 | inactive | – |
| O=C(N/N=C1\CC2CC=CC12)c1ccc(COc2ccccc2)cc1 (configuration not stated) | inconclusive: 25.9 µM [inhibitor, single point] | – |
| CCOc1ccc(-c2ncncc2-c2ccc(OC)cc2)c(O)c1 | inconclusive: 29.1 µM [inhibitor, single point] | – |
| COc1cccc(CNC(=O)c2ccc3c(c2)N(C)C(=O)C2CCCCN32)c1 (configuration not stated) | inconclusive: 29.1 µM [inhibitor, single point] | – |
| COc1ccc(-c2nc3cc(F)ccc3cc2CN(C(=O)c2cccs2)C2CC2)cc1 | – | inconclusive: -28.7% [inhibitor] |
| COc1ccc(C2C=C(C)Nc3nc4ccccc4n32)cc1 (configuration not stated) | active: 18.4 µM | – |
| Cc1cccc(NS(=O)(=O)c2ccc(C(=O)NCC(c3ccccc3)N(C)C)cc2)c1C (configuration not stated) | inconclusive: 23.1 µM [inhibitor, single point] | – |
| O=C1C=C(c2cccc(Cl)c2O)C[C@@H](c2ccc(F)cc2)C1 | inconclusive: 18.4 µM [inhibitor, single point] | – |
| CCc1ccc(NC(=O)C2CCC(CNS(=O)(=O)c3cccs3)CC2)cc1 (configuration not stated) | inconclusive: 6.51 µM [inhibitor, single point] | – |
| Cc1cc(C(=O)CN2C(=O)C(=O)N(C3CCCC3)C2=O)c(C)n1CCc1ccccc1 | inconclusive: 18.4 µM [inhibitor, single point] | – |
| CCN(CC)S(=O)(=O)c1cc(NC(=O)CCCOc2ccc(C(C)=O)cc2)ccc1C | active: 18.4 µM | – |
| CCn1cc(CNC(=O)c2cc(COc3ccc(F)cc3Cl)on2)cn1 | active: 5.8 µM | – |
| Cc1ccc(N(CC(=O)NCCSc2ccccn2)S(C)(=O)=O)cc1 | inconclusive: 18.4 µM [inhibitor, partial curve] | – |

| SMILES | Potency | activity change, negative = growth inhibition |
| --- | --- | --- |
| COc1ccccc1C(=O)c1ccccc1C(=O)c1ccccc1 | active: 18.4 µM | – |
| CCOc1ccc(CCNC(=O)Cc2ccc(NC3=NC4CS(=O)(=O)CC4S3)cc2)cc1 (configuration not stated) | inactive | – |
| O=C(NCCC1CCCCN1S(=O)(=O)c1ccc(Cl)cc1)C(=O)NCc1ccncc1 (configuration not stated) | – | inconclusive: -37% [inhibitor] |
| CC1(C)Cc2ccccc2-c2nc3ccccc3c(=O)n21 | active: 11.6 µM | – |
| CC(C)n1ncc2c(C(=O)NCc3cccnc3)cc(C3CC3)nc21 | inconclusive: 13 µM [inhibitor, single point] | – |
| CC1=C(C(=O)NC2CC(C)(C)Cc3c2cnn3-c2ccc(C)cc2)OCCO1 (configuration not stated) | inconclusive: 18.4 µM [inhibitor, single point] | – |
| Cc1ccc(-n2c(SCc3nc4ccccc4[nH]3)nnc2-c2ccncc2)cc1 | inconclusive: 23.1 µM [inhibitor, single point] | – |
| Cc1ccccc1NC(=O)c1c(NC(=O)c2ccncc2)sc2c1CCC(C(C)(C)C)C2 (configuration not stated) | active: 6.51 µM | – |
| O=C(c1ccc(S(=O)(=O)N2CCOCC2)cc1)N1CCN(c2ccccn2)CC1 | inactive | – |
| COc1ccccc1NC(=O)C1=C(C)Nc2nc(-c3ccco3)nn2C1c1ccccc1 (configuration not stated) | inconclusive: 29.1 µM [inhibitor, single point] | – |
| CCCCCC(=O)N1CC2(CC)CN(C(=O)CCCCC)CC(CC)(C1)C2=O | inconclusive: 20.6 µM [inhibitor, single point] | – |
| NC(=S)N=Nc1c(O)n(Cc2ccc(Br)cc2)c2ccccc12 | active: 4.61 µM | – |
| Cc1cc2c(cc1C)CSC(c1ccccc1O)SC2 | inconclusive: 20.6 µM [inhibitor, partial curve] | – |
| CN(C)c1ccc(/C=C2\C=Cc3ccccc32)c(Cl)c1 | active: 12.6 µM | – |
| CCOC(=O)c1c(NC(=O)c2cc(-c3ccc(Cl)cc3)on2)sc2c1CCCC2 | inactive | – |
| CNS(=O)(=O)c1cc(-c2nn3c(C)nnc3c3ccccc23)ccc1C | inconclusive: 23.1 µM [inhibitor, single point] | – |
| O=C(COC(=O)c1cc([N+](=O)[O-])ccc1Cl)NC1CCCC1 | inactive | – |
| CCCC(=O)Oc1ccccc1C1SCc2cc(C)c(C)cc2CS1 | active: 25.9 µM | – |
| Cc1ccc(CNc2oc(-c3ccc(COc4ccc(Cl)cc4)o3)nc2C#N)cc1 | inconclusive: 29.1 µM [inhibitor, single point] | – |
| Cc1cc(C)c2cc(C#N)c(N3CCCC3)nc2c1 | – | inconclusive: -31.8% [inhibitor] |
| C/C(Cl)=C\Cn1c(N2CCCC2)nc2c1c(=O)n(C)c(=O)n2C | inconclusive: 16.4 µM [inhibitor, single point] | – |
| Cc1cccc(CNC(=O)CC2C(=O)NCCN2C2CCCC2)c1 (configuration not stated) | inactive | – |
| S=C(NC1CCCCC1)N(CCc1ccccc1)CCc1ccccc1 | inconclusive: 0.366 µM [inhibitor, full curve, poor fit] | – |
| Cc1ccc2nc(-c3cccc(-c4cccc(Cl)c4)c3)c(NCc3ccccc3)n2c1 | inconclusive: 29.1 µM [inhibitor, single point] | – |
